In the assay the target is T1, human NPRA (hNPRA) (Homo sapiens, UniProt P16066).
T1 construct: expressed in transfected cells
T1 sequence (P16066 33-1061): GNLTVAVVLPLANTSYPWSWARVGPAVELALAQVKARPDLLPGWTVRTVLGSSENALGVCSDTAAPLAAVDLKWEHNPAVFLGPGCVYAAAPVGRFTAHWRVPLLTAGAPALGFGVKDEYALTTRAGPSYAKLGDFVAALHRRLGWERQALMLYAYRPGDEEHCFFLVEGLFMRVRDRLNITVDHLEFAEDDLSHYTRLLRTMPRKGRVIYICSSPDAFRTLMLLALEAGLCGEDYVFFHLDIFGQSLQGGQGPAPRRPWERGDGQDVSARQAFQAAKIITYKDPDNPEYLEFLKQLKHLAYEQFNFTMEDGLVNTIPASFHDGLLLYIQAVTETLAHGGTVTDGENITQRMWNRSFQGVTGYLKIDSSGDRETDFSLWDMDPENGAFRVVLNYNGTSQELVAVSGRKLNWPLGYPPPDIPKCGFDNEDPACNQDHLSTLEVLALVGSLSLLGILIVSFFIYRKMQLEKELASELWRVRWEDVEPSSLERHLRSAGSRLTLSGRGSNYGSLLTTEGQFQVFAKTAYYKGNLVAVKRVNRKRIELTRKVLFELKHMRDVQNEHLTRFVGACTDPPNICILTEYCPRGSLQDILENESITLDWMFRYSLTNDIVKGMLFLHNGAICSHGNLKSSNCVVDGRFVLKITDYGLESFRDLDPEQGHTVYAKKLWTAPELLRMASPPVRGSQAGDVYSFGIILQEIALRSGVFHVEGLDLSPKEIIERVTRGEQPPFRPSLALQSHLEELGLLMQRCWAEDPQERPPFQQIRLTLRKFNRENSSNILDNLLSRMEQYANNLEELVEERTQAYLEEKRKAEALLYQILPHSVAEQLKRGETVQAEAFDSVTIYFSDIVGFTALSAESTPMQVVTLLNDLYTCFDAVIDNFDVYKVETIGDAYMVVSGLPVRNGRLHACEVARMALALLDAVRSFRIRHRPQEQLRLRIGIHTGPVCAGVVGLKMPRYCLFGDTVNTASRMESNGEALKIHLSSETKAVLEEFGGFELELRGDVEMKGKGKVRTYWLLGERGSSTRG
Description: cGMP quantification assay (HTRF) on stable hNPRA-CHO k1 cells (rcs, ics, pcs samples). The format is cell-based. The following applies: for activity (qualit. activity, excerpt of Table 7): ANP engrafted antibody constructs, summarized qualitative assessment from average rel. log EC50 vs reference TPP-5661 on hNPRA cells; for activity rcs: raw compound samples (rcs) on stable hNPRA-CHO k1 cells, reference TPP-5661 (#117) gives 36%, n.a. = not active; for qualit. activity on hNPRA: BNP engrafted antibody constructs, purified compound samples (pcs), dilution series in quadruplets; for activity on hNPRA cells: purified compound samples. On the procedure: All activities shown in Tables 7 and 8 were measured on cells with heterologous over expression of human NPRA (hNPRA) by use of a cGMP quantification assay conducted according to manufacturer's instructions (cisbio; 62GM2PEH). In brief, the assay quantifies cGMP in buffered solution or cell-culture supernatants based on the competition between cGMP produced by the cell as result of the NPRA stimulation through the (natriuretic peptide) sample and d2 labelled cGMP for binding to a Cryptate labelled antibody. Sample cGMP and d2 labeled cGMP compete for binding to a limited number of sites on Cryptate labeled anti-cGMP antibodies, and consequently, HTRF® specific fluorescent signal (i.e. energy transfer) is inversely proportional to the concentration of cGMP in the sample.
Dose-response curve data were analyzed with GraphPad Prism (version 7.00 for Windows, GraphPad Software, La Jolla California USA) and EC50 were fitted according to Y=Bottom+(Top-Bottom)/(1+10∧((Log EC50-X)*HillSlope)) applying constraints for bottom, top and slope (shared value for all data sets of the respective experiment).
The raw compound sample activity on stable hNPRA-CHO k1 cells was first assessed by comparison to the negative control TPP-5657 and to a positive sample, in particular TPP-5661. Controls and res were tested in quadruplets in two concentrations with a relative dilution factor of 5 aiming for a fluorescent signal (s) in the dynamic range of the assay. […] Values listed in Table 7, columns “activity res” and “stdev activity res”, represent the average of the results for the two concentrations and the respective standard deviation. Res signals less than half of the signal of the reference compound TPP-5661 (36%) were assessed as not active (n.a.).
The activity of several raw compound samples on stable hNPRA-CHO k1 cells was reassessed by comparison to reference sample TPP-5661 in 2.5-fold dilution series (8 concentrations) starting with a 5-fold dilution. The “log EC50” fit value as activity measure of the res was set in relation to the corresponding value of the reference res TPP-5661 by calculating the delta “log EC50” _compound −“log EC50” _TPP-5661; resulting values are listed in Table 7, column “rel. activity res”. […] All samples were applied in quadruplets.
The activity of isolated compound samples on stable hNPRA-CHO k1 cells was assessed by EC50 determination and comparison to reference sample TPP-5661. Samples were tested in 2.5-fold dilution series from 80 nM to 0.13 nM. The log EC50 fit value as activity measure of the ics was set in relation to the corresponding value of the reference ics TPP-5661 (−8.8) by calculating the delta log EC50_compound−log EC50_TPP-5661; resulting values are listed in Table 7, column “rel. log EC50 ics”. All samples were applied in quadruplets.
The activity of purified compound samples on stable hNPRA-CHO k1 cells was assessed in multiple experiments by EC50 determination and comparison to reference sample TPP-5661. Samples were tested in dilution series at least in quadruplets. […] The log EC50 fit value as activity measure of the pcs was set in relation to the corresponding value of the reference TPP-5661 in the respective experiment (in average −9.2, standard deviation 0.5) by calculating the delta log EC50_compound−log EC50_TPP-5661.
Background: TR-FRET usually uses a lanthanide donor and a delayed reading to cut background.

Where [1] appears, read: summarized qualitative assessment from average rel. log EC50 (hNPRA-CHO k1 and hNPRA-HEK293 data), n.e = not active, very low expression.
Setting [2] is: summarized qualitative assessment of activity relative to reference TPP-5661.

B1: TPP-10847: ANP engrafted antibody construct, CDRH2 (antibody, listed as Homo sapiens)
heavy: EVQLLESGGGLVQPGGSLRLSCAASGFTFSSYAMSWVRQAPGKGLEWVSAISGTSASLAITGPDGGSGGSLRRSSCFGGRMDRIGAQSGLGCNSFRYGSDRFSGSKSGGSTYYADSVKGRFTISRDNSKNTLYLQMNSLRAEDTAVYYCAKLTGAEYFQHWGQGTLVTVSS[letters of human IgG1 constant region left out]
light: QSVLTQPPSVSGAPGQRVTISCTGSSSNIGAGYDVHWYQQLPGTAPKLLIYGNSNRPSGVPDRFSGSKSGTSASLAITGLQAEDEADYYCQSYDSSLSGVVFGGGTKLTVLGQPKAAPSVTLFPPSSEELQANKATLVCLISDFYPGAVTVAWKADSSPVKAGVETTTPSKQSNNKYAASSYLSLTPEQWKSHRSYSCQVTHEGSTVEKTVAPTECS
modifications: NP engrafted HC
On to B1, for which the “activity (qualit. activity, excerpt of Table 7)” value is listed as “++ (relative log EC50<0.7 were assessed as very active)” and the activity rcs result was “n.a. (Res signals less than half of the signal of the reference compound TPP-5661 (36%) were assessed as not active (n.a.))”. Moreover, for the setting “stable hNPRA-CHO k1 cells, raw compound samples”, the “activity as raw compound sample (res)” value is “no activity”. In addition, the qualit. activity entry under setting [1] was “++ (relative log EC50<0.7 were assessed as very active)”.

B2: TPP-10294: ANP engrafted antibody construct, CDRH1 (antibody, listed as Homo sapiens)
heavy: EVQLLESGGGLVQPGGSLRLSCAASGFTFGSGSGSGSGSGSPDGGSGGSLRRSSCFGGRMDRIGAQSGLGCNSFRYGSYGSGSGSGSGSGMSWVRQAPGKGLEWVSAISGSGGSTYYADSVKGRFTISRDNSKNTLYLQMNSLRAEDTAVYYCAKLTGAEYFQHWGQGTLVTVSS[letters of human IgG1 constant region left out]
light: B1 light
modifications: NP engrafted HC
Take B2: the “activity (qualit. activity, excerpt of Table 7)” value is “++ (relative log EC50<0.7 were assessed as very active)” and the activity rcs amounted to 41%. Under setting [1], the qualit. activity entry is “++ (relative log EC50<0.7 were assessed as very active)”.

B3: TPP-10274: ANP engrafted antibody construct, CDRH3 (antibody, listed as Homo sapiens)
heavy: EVQLLESGGGLVQPGGSLRLSCAASGFTFSSYAMSWVRQAPGKGLEWVSAISGSGGSTYYADSVKGRFTISRDNSKNTLYLQMNSLRAEDTAVYYCTSVHQETKKYQSSPDGGSGGSLRRSSCFGGRMDRIGAQSGLGCNSFRYGSYSYTYNYEWHVDVWGQGTLVTVSS[letters of human IgG1 constant region left out]
light: B1 light
modifications: NP engrafted HC
For B3, the activity rcs was determined as 71%. Moreover, the qualit. activity entry under setting [2] is “++ (relative log EC50<0.7 were assessed as very active)”.

B4: TPP-13054: ANP engrafted antibody construct, CDRH1 (antibody, listed as Homo sapiens)
heavy: EVQLLESGGGLVQPGGSLRLSCAASGFTFGSGSGSGGSGGSLRRSSCFGGRMDRIGAQSGLGCNSFRYGGSGGSGSGSGMSWVRQAPGKGLEWVSAISGSGGSTYYADSVKGRFTISRDNSKNTLYLQMNSLRAEDTAVYYCAKLTGAEYFQHWGQGTLVTVSS[letters of human IgG1 constant region left out]
light: B1 light
modifications: NP engrafted HC
Regarding B4, the “activity (qualit. activity, excerpt of Table 7)” value is “++ (relative log EC50<0.7 were assessed as very active)”. Besides, the qualit. activity result under setting [1] is given as “++ (relative log EC50<0.7 were assessed as very active)”.

B5: TPP-11156: BNP (Hum28aa) engrafted human IgG1 antibody construct, CDRH2 (antibody, listed as Homo sapiens)
heavy: EVQLLESGGGLVQPGGSLRLSCAASGFTFSSYAMSWVRQAPGKGLEWVSAISGSVVVTSHQAPGGGSGGMVQGSGCFGRKMDRISSSSGLGCKVLRRGEKKKLKSLAYGSTYYADSVKGRFTISRDNSKNTLYLQMNSLRAEDTAVYYCAKLTGAEYFQHWGQGTLVTVSS[letters of human IgG1 constant region left out]
light: B1 light
modifications: NP engrafted HC
notes: BNP (Hum28aa) engrafted human IgG1 antibody construct, CDRH2
For B5, under “stable hNPRA-CHO k1 cells”, the “qualit. activity on hNPRA” value is given as “++ (relative log EC50<0.7 were assessed as very active)” and the “activity on hNPRA cells” value is listed as “significant activity”.

B6: TPP-10290: ANP engrafted antibody construct, CDRH3 (antibody, listed as Homo sapiens)
heavy: [letters of about 100 residues left out]VHPNPNPNPNSPDGGSGGSLRRSSCFGGRMDRIGAQSGLGCNSFRYGSYNPNPNPNPHVDVWGQGTTVTVSS[letters of human IgG1 constant region left out]
light: B1 light
modifications: NP engrafted HC
With B6, the “activity (qualit. activity, excerpt of Table 7)” value is “++ (relative log EC50<0.7 were assessed as very active)” and the activity rcs is 84%. Moreover, the qualit. activity entry under setting [2] was “++ (relative log EC50<0.7 were assessed as very active)”.

B7: TPP-9902: BNP (Hum28aa) engrafted human IgG1 antibody construct, CDRH3 (antibody, listed as Homo sapiens)
heavy: EVQLLESGGGLVQPGGSLRLSCAASGFTFSSYAMSWVRQAPGKGLEWVSAISGSGGSTYYADSVKGRFTISRDNSKNTLYLQMNSLRAEDTAVYYCTSVHQETKKYQSSPDGGSGGMVQGSGCFGRKMDRISSSSGLGCKVLRRGSYSYTYNYEWHVDVWGQGTLVTVSS[letters of human IgG1 constant region left out]
light: B1 light
modifications: NP engrafted HC
notes: BNP (Hum28aa) engrafted human IgG1 antibody construct, CDRH3
For B7, where the note is “stable hNPRA-CHO k1 cells”, the “qualit. activity on hNPRA” value is given as “++ (relative log EC50<0.7 were assessed as very active)” and the “activity on hNPRA cells” value was “significant activity”.

The record behind these values is patent US20250236654A1, “C-TYPE NATRIURETIC PEPTIDE ENGRAFTED ANTIBODIES” (Bayer Aktiengesellschaft, priority 2018, published 2025).
